Laboratory results reported in the supplement of paper PMC10369915.
Some of the results follow. No stated cut-off is given here; in the data, active = 3.2 or more and inactive = the rest. The signal is at background level for most entries.

How the values were obtained:
Test in all cases: enrichment score (SH2-bound / input frequency) (ratio); bacterial display of known human phosphotyrosine sites (pTyr-Var adds point mutants) read by sequencing; higher = stronger binding; tyrosines were phosphorylated by kinases first
Details in all cases: peptide library: pTyr-Var
SHP2 C-SH2 domain E139D = molecular target: SHP2 C-SH2 domain E139D
[1] = molecular target: SHP2 C-SH2 domain wild-type
SHP2 N-SH2 domain L43F = molecular target: SHP2 N-SH2 domain L43F
SHP2 N-SH2 domain T42A = molecular target: SHP2 N-SH2 domain T42A
SHP2 N-SH2 domain T52S = molecular target: SHP2 N-SH2 domain T52S
[2] = molecular target: SHP2 N-SH2 domain wild-type

Measured: enrichment score
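Further: displayed peptides selected on beads carrying the immobilized SH2 domain, with library peptides lacking any tyrosine serving as negative controls.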

TPGPNYRPGFN [USH2A_Y463_YF]
inactive: SHP2 C-SH2 domain E139D 0.74 | [1] 0.579 | SHP2 N-SH2 domain L43F 0.817 | SHP2 N-SH2 domain T42A 0.78 | SHP2 N-SH2 domain T52S 0.587 | [2] 0.849

NYRPGYNNFYN [USH2A_Y467]
inactive: SHP2 C-SH2 domain E139D 0.886 | [1] 0.932 | SHP2 N-SH2 domain L43F 0.697 | SHP2 N-SH2 domain T42A 0.743 | SHP2 N-SH2 domain T52S 0.802 | [2] 0.766

NFRPGYNNFFN [USH2A_Y467_YF]
inactive: SHP2 C-SH2 domain E139D 1.22 | [1] 0.814 | SHP2 N-SH2 domain L43F 1.16 | SHP2 N-SH2 domain T42A 0.982 | SHP2 N-SH2 domain T52S 0.961 | [2] 1

TTSQPYRCLCS [USH2A_Y534]
inactive: SHP2 C-SH2 domain E139D 1.15 | [1] 0.959 | SHP2 N-SH2 domain L43F 0.667 | SHP2 N-SH2 domain T42A 0.859 | SHP2 N-SH2 domain T52S 1.04 | [2] 1.14

KNRDVYSSDYF [USP24_Y2134]
inactive: SHP2 C-SH2 domain E139D 0.848 | [1] 0.762 | SHP2 N-SH2 domain L43F 0.69 | SHP2 N-SH2 domain T42A 0.687 | SHP2 N-SH2 domain T52S 0.715 | [2] 0.823

KNRDVYSSDFF [USP24_Y2134_YF]
inactive: SHP2 C-SH2 domain E139D 0.837 | [1] 0.855 | SHP2 N-SH2 domain L43F 0.69 | SHP2 N-SH2 domain T42A 0.67 | SHP2 N-SH2 domain T52S 0.695 | [2] 0.835

VSSSDYFSFVL [USP24_Y2138_Y2134S]
inactive: SHP2 C-SH2 domain E139D 0.799 | [1] 0.88 | SHP2 N-SH2 domain L43F 0.789 | SHP2 N-SH2 domain T42A 0.832 | SHP2 N-SH2 domain T52S 0.915 | [2] 0.754

KRLKDYLTVLQ [USP25_Y425]
inactive: SHP2 C-SH2 domain E139D 0.905 | [1] 0.841 | SHP2 N-SH2 domain L43F 0.806 | SHP2 N-SH2 domain T42A 0.863 | SHP2 N-SH2 domain T52S 0.98 | [2] 1.11

KRLKDYLMVLQ [USP25_Y425_T427M]
inactive: SHP2 C-SH2 domain E139D 2.2 | [1] 2.29 | SHP2 N-SH2 domain L43F 2.41 | SHP2 N-SH2 domain T42A 2.24 | SHP2 N-SH2 domain T52S 2.72 | [2] 1.93

DTYDPYLDVAL [USP36_Y268]
inactive: SHP2 C-SH2 domain E139D 0.616 | [1] 0.647 | SHP2 N-SH2 domain L43F 0.711 | SHP2 N-SH2 domain T42A 0.471 | SHP2 N-SH2 domain T52S 0.577 | [2] 0.734

DTYDPYLDIAL [USP36_Y268_V271I]
inactive: SHP2 C-SH2 domain E139D 0.467 | [1] 0.677 | SHP2 N-SH2 domain L43F 0.76 | SHP2 N-SH2 domain T42A 0.691 | SHP2 N-SH2 domain T52S 0.488 | [2] 0.747

DTFDPYLDIAL [USP36_Y268_V271I_YF]
inactive: SHP2 C-SH2 domain E139D 0.742 | [1] 0.664 | SHP2 N-SH2 domain L43F 0.637 | SHP2 N-SH2 domain T42A 0.633 | SHP2 N-SH2 domain T52S 0.752 | [2] 0.736

DTFDPYLDVAL [USP36_Y268_YF]
inactive: SHP2 C-SH2 domain E139D 0.915 | [1] 0.841 | SHP2 N-SH2 domain L43F 0.832 | SHP2 N-SH2 domain T42A 0.695 | SHP2 N-SH2 domain T52S 0.841 | [2] 1.01

KLKRSYSSRDI [USP8_Y717_P720R]
inactive: SHP2 C-SH2 domain E139D 0.485 | [1] 0.395 | SHP2 N-SH2 domain L43F 0.424 | SHP2 N-SH2 domain T42A 0.474 | SHP2 N-SH2 domain T52S 0.493 | [2] 0.52

SHNELYYEEAE [VANGL1_Y344]
inactive: SHP2 C-SH2 domain E139D 0.462 | [1] 0.578 | SHP2 N-SH2 domain L43F 0.457 | SHP2 N-SH2 domain T42A 0.404 | SHP2 N-SH2 domain T52S 0.391 | [2] 0.617

SHNELYYEAAE [VANGL1_Y344_E347A]
inactive: SHP2 C-SH2 domain E139D 0.585 | [1] 0.641 | SHP2 N-SH2 domain L43F 0.607 | SHP2 N-SH2 domain T42A 0.647 | SHP2 N-SH2 domain T52S 0.825 | [2] 0.691

HNELYYEAAEH [VANGL1_Y345_E347A]
inactive: SHP2 C-SH2 domain E139D 0.596 | [1] 0.685 | SHP2 N-SH2 domain L43F 0.562 | SHP2 N-SH2 domain T42A 0.403 | SHP2 N-SH2 domain T52S 0.57 | [2] 0.625

HNELFYEEAEH [VANGL1_Y345_YF]
inactive: SHP2 C-SH2 domain E139D 0.771 | [1] 0.627 | SHP2 N-SH2 domain L43F 0.946 | SHP2 N-SH2 domain T42A 0.731 | SHP2 N-SH2 domain T52S 0.614 | [2] 0.534

NDDDVYLSLEE [VAV2_Y142_R143L]
inactive: SHP2 C-SH2 domain E139D 0.447 | [1] 0.568 | SHP2 N-SH2 domain L43F 0.51 | SHP2 N-SH2 domain T42A 0.275 | SHP2 N-SH2 domain T52S 0.507 | [2] 0.479
